For assay [1], the target named is T1, immunoglobulin mu DNA binding protein 2 (IGHMBP2), human, full length, thioredoxin-6xHis fusion from pET32b (human) (UniProt P38935).
T1 sequence (chain, RED-Tris-NTA (NT-647) fluorescent label in the MST): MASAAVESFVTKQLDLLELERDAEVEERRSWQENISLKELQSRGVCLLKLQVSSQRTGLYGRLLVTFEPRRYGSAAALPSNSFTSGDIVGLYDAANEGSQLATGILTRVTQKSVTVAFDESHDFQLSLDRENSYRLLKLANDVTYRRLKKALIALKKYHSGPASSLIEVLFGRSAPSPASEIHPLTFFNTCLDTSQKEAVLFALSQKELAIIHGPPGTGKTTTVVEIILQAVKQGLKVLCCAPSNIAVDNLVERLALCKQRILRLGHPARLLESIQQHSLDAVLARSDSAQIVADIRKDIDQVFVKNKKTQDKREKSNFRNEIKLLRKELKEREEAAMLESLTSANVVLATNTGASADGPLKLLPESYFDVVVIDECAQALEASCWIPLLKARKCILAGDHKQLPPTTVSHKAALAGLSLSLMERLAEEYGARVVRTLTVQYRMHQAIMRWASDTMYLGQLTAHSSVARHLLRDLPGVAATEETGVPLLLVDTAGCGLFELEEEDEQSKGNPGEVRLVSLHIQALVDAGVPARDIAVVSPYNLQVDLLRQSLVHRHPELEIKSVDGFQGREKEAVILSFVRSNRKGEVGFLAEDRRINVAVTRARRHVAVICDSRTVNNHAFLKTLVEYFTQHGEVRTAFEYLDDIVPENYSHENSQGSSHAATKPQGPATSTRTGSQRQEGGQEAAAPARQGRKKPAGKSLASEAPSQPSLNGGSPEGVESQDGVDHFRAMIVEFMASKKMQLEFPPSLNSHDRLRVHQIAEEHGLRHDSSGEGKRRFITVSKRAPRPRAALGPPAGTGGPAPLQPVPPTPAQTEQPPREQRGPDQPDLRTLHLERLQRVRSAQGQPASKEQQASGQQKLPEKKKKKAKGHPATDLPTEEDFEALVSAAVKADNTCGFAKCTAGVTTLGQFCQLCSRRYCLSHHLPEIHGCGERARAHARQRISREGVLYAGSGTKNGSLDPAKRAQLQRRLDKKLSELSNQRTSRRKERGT
As to the kind of experiment: dynamic light scattering; purified proteins incubated 1:1, each at 100 nm (so in the source), diluted in PBS, 24 °C, Zetasizer; size by intensity; both purified.

The chains behind the UniProt entries cited, without tags or fusion partners.
UniProt P38432: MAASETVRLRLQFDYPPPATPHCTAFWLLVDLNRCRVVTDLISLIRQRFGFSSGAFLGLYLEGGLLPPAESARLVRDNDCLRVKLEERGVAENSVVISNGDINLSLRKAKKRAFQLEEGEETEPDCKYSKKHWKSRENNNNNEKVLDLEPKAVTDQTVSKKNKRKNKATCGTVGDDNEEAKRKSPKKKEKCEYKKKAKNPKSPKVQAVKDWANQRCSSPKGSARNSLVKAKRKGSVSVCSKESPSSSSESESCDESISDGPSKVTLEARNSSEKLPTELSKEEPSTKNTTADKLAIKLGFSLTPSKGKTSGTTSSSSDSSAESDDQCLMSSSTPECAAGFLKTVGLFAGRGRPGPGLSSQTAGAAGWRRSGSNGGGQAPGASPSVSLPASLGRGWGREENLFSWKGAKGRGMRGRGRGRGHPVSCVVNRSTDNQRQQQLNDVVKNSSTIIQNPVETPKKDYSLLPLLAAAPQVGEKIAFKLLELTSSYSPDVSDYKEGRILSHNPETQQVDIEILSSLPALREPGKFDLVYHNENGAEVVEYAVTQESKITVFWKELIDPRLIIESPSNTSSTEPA

For assay [2], the target named is T1, immunoglobulin mu DNA binding protein 2 (IGHMBP2), human, full length, thioredoxin-6xHis fusion from pET32b (human). As to the kind of experiment: MST; IGHMBP2 RED-Tris-NTA labelled, constant 100 nM; partner titrated (1 μM to 1.53 × 10^5 μM as printed); fit to a quadratic equation, MO.Affinity Analysis; both purified.
Assay [3] has as its target T2, activator of basal transcription 1 (ABT1), mouse, full length, GST fusion from pGEX-6P1 (mouse) (UniProt Q9QYL7).
T2 sequence: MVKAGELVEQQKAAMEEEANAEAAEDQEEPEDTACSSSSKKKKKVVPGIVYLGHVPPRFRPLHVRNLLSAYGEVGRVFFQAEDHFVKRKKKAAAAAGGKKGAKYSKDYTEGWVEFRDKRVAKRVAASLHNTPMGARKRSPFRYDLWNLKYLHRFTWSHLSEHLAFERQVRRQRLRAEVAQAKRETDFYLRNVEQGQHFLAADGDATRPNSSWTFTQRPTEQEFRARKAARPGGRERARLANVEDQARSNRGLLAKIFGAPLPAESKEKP
As to the kind of experiment: co-IP; pET32b-IGHMBP2 + GST-ABT1 from E. coli mixed, precleared with A/G beads, IP overnight at 4 °C with anti-His, anti-IGHMBP2, anti-ABT1 or anti-GST, washed in 10 mM Tris pH 7.4, 1 mM EGTA, 150 mM NaCl, 1% Triton X-100; Western blot with anti-IGHMBP2 or anti-ABT1; results call the proteins purified, methods and legend call them bacterial lysates.

Assay [4] addresses T1, immunoglobulin mu DNA binding protein 2 (IGHMBP2), human, full length, thioredoxin-6xHis fusion from pET32b (human). As to the kind of experiment: cross-linking; IGHMBP2 + ABT1 with 5′ ETS RNA or U3 snoRNA, UV 254 nm, RNase A, SDS-PAGE; upshifted band cut out, trypsin digested, LC-MS; both purified.
Assay [5] shares this target. As to the kind of experiment: cross-linking; unpublished observations: IGHMBP2 + ABT1 with 5′ ETS RNA or U3 snoRNA, UV cross-linked, SDS-PAGE, Western blot with anti-ABT1 and anti-IGHMBP2; both purified.
Assay [6] has the same target. As to the kind of experiment: co-IP; pET32b-IGHMBP2 + GST-ABT1 from E. coli mixed, precleared with A/G beads, IP overnight at 4 °C with anti-His, anti-IGHMBP2, anti-ABT1 or anti-GST, washed in 10 mM Tris pH 7.4, 1 mM EGTA, 150 mM NaCl, 1% Triton X-100; Western blot with anti-IGHMBP2 or anti-ABT1; results call the proteins purified, methods and legend call them bacterial lysates. Background: A western blot detects proteins with antibodies after separation by electrophoresis.

Results are given in words; binding and its absence hold for the method and conditions named. For some of these results: Binding seen in cells or lysates may run through a third protein. Some results given as binding are weak or reduced against the parent protein; the word gives no strength. Tags and fused reporters may be left off the sequences shown.

Consider 3 molecules from PMC9977310, “ABT1 modifies SMARD1 pathology via interactions with IGHMBP2 and stimulation of ATPase and helicase activity” (JCI Insight, 2023).

Turning to “p80 (Coilin) (from UniProt P38432 1-576)”, the binding entry in assay [1] is “no binding”; in assay [2] it was “no binding (tested: 1 μM to 1.53 × 10^5 μM p80)”.

B1: immunoglobulin mu DNA binding protein 2 (IGHMBP2), human, full length, thioredoxin-6xHis fusion from pET32b (enzyme, UniProt P38935 1-993)
chain: MASAAVESFVTKQLDLLELERDAEVEERRSWQENISLKELQSRGVCLLKLQVSSQRTGLYGRLLVTFEPRRYGSAAALPSNSFTSGDIVGLYDAANEGSQLATGILTRVTQKSVTVAFDESHDFQLSLDRENSYRLLKLANDVTYRRLKKALIALKKYHSGPASSLIEVLFGRSAPSPASEIHPLTFFNTCLDTSQKEAVLFALSQKELAIIHGPPGTGKTTTVVEIILQAVKQGLKVLCCAPSNIAVDNLVERLALCKQRILRLGHPARLLESIQQHSLDAVLARSDSAQIVADIRKDIDQVFVKNKKTQDKREKSNFRNEIKLLRKELKEREEAAMLESLTSANVVLATNTGASADGPLKLLPESYFDVVVIDECAQALEASCWIPLLKARKCILAGDHKQLPPTTVSHKAALAGLSLSLMERLAEEYGARVVRTLTVQYRMHQAIMRWASDTMYLGQLTAHSSVARHLLRDLPGVAATEETGVPLLLVDTAGCGLFELEEEDEQSKGNPGEVRLVSLHIQALVDAGVPARDIAVVSPYNLQVDLLRQSLVHRHPELEIKSVDGFQGREKEAVILSFVRSNRKGEVGFLAEDRRINVAVTRARRHVAVICDSRTVNNHAFLKTLVEYFTQHGEVRTAFEYLDDIVPENYSHENSQGSSHAATKPQGPATSTRTGSQRQEGGQEAAAPARQGRKKPAGKSLASEAPSQPSLNGGSPEGVESQDGVDHFRAMIVEFMASKKMQLEFPPSLNSHDRLRVHQIAEEHGLRHDSSGEGKRRFITVSKRAPRPRAALGPPAGTGGPAPLQPVPPTPAQTEQPPREQRGPDQPDLRTLHLERLQRVRSAQGQPASKEQQASGQQKLPEKKKKKAKGHPATDLPTEEDFEALVSAAVKADNTCGFAKCTAGVTTLGQFCQLCSRRYCLSHHLPEIHGCGERARAHARQRISREGVLYAGSGTKNGSLDPAKRAQLQRRLDKKLSELSNQRTSRRKERGT
modifications: RED-Tris-NTA (NT-647) fluorescent label in the MST
On to B1, for which the binding result in assay [3] is “binds”.

B2: activator of basal transcription 1 (ABT1), mouse, full length, GST fusion from pGEX-6P1 (natural protein, UniProt Q9QYL7 1-269, looked up)
chain: MVKAGELVEQQKAAMEEEANAEAAEDQEEPEDTACSSSSKKKKKVVPGIVYLGHVPPRFRPLHVRNLLSAYGEVGRVFFQAEDHFVKRKKKAAAAAGGKKGAKYSKDYTEGWVEFRDKRVAKRVAASLHNTPMGARKRSPFRYDLWNLKYLHRFTWSHLSEHLAFERQVRRQRLRAEVAQAKRETDFYLRNVEQGQHFLAADGDATRPNSSWTFTQRPTEQEFRARKAARPGGRERARLANVEDQARSNRGLLAKIFGAPLPAESKEKP
notes: ABT1, mouse, full-length cDNA synthesized (GenScript), cloned into pGEX6P1; 31 kDa ABT1 + ~26 kDa GST, predicted ~57 kDa; Mouse ABT1 was tested against human IGHMBP2; No cleavage of GST is described; also called GST-ABT1; pGEX-ABT1; source: E. coli (BL21 and Rosetta strains used), purified on GST beads, eluted with reduced glutathione; bacterial cell lysate in the immunoprecipitation
Regarding B2, the binding result in assay [4], in assay [1], in assay [5] and in assay [6] was “binds” each time.
